In article PMC4336329 (PLoS ONE, 2015):
The whole screen tested about 310,000 compounds, of which about 2,200 (0.71%) showed an effect of 50% or more. The effect is printed as a negative number. The list shows a part of the results.

The compounds below were run against human ether-à-go-go-related gene (hERG) potassium channel (human, UniProt Q12809) (assay: primary screen, population patch clamp on CHO cells stably expressing hERG).
human ether-à-go-go-related gene (hERG) potassium channel, sequence (Q12809 whole entry, looked up): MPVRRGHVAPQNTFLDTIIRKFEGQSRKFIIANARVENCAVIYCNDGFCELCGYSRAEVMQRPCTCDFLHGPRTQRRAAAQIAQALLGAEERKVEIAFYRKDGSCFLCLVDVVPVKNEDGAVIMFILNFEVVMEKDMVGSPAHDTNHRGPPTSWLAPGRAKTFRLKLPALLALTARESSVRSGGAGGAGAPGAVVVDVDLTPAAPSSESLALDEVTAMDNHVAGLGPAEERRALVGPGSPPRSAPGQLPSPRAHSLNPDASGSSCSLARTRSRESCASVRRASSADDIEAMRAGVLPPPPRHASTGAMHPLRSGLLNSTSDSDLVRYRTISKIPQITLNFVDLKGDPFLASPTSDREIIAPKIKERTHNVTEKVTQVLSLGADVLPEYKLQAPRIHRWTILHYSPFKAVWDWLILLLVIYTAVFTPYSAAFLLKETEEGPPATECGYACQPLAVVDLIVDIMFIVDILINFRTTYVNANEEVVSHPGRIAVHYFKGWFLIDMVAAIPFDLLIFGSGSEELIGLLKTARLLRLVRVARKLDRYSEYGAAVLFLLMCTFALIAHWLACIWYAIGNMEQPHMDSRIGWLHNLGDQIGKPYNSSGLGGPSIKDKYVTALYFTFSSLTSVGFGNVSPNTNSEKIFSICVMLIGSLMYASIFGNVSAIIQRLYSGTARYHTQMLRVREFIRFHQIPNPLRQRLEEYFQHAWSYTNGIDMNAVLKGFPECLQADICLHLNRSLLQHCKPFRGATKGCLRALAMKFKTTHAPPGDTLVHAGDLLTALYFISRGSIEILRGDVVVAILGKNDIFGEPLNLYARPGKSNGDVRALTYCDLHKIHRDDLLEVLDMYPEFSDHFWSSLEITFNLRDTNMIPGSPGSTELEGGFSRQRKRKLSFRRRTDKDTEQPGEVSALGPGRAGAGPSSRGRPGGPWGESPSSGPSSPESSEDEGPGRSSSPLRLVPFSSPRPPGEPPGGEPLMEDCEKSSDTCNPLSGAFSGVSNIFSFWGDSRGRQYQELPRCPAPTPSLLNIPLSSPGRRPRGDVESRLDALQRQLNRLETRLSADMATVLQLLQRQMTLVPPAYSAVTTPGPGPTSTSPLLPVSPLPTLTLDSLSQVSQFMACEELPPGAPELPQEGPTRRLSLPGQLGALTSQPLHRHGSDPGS

Structure (SMILES)	hERG current change (%, negative = inhibition) at 1uM [%]
O=C(CCN1CCCCC1)Nc1ccccc1	10.5
O=C(CN1C(=O)/C(=C/c2ccc(F)cc2)SC1=S)NC1CCS(=O)(=O)C1 (stereo not drawn)	20
Cc1ccc(SCCC(=O)N/N=C/c2ccncc2)cc1	9.5
CN1CCN(S(=O)(=O)c2cccc(C(=O)Nc3ccccc3N3CCCCC3)c2)CC1	20.4
CC(OC(=O)Cc1ccc(Br)cc1)C(=O)NC1CCCCC1C (stereo not drawn)	2.35
NC(=O)CCn1c2ccccc2c2ccccc21	3.45
CCc1nc(SCC(=O)NC2CCCC2)c2c(=O)n(C)c(=O)n(C)c2n1	10.1
Cc1ccc(NC(=O)C2Cc3ccccc3CN2C(=O)c2ccccc2)cc1Cl (stereo not drawn)	3.9
CCCCN1C(=O)CC(Sc2ccccc2C(=O)O)C1=O (stereo not drawn)	-1.56
CCOC(=O)C1=C(c2ccccc2)OC(N)=C(C#N)C1c1cccnc1 (stereo not drawn)	6.5
CCOc1ccccc1OCCCC(=O)NC1=NCCS1	11.8
COc1ccc(-n2ccnc2SCC(=O)NO)cc1	11.1
COc1ccc(NC(=O)C2CCCN(S(=O)(=O)c3c(C)[nH]c(=O)[nH]c3=O)C2)cc1 (stereo not drawn)	-4.64
Cc1ccc(Cn2nnc3c(=O)[nH]c(C4CCCN(S(=O)(=O)c5ccccc5)C4)nc32)cc1 (stereo not drawn)	9.16
Nc1nc(SCCC(F)=C(F)F)n[nH]1	4.82
CCOc1ccc(NC(=O)C2CCN(S(=O)(=O)c3cccs3)CC2)cc1	12.6
CCc1cccc(CC)c1N(COC)C(=O)Cn1c(C(C)O)nc2ccccc21 (stereo not drawn)	-4.09
CCCNC(=O)CC1Sc2ccccc2NC1=O (stereo not drawn)	7.86
O=C(/C=C/c1ccc([N+](=O)[O-])cc1)c1cccnc1	-13.6
COCCN(C(=O)c1csnn1)C(C(=O)NC1CCCCC1)c1ccccc1F (stereo not drawn)	14.3
Cc1ccc(-c2nc3ncccc3o2)cc1NC(=O)CC(C)C	3.93
COCCC(=O)N1CCC(Oc2ccc(C(=O)N3CCCC(CCCO)C3)cc2)CC1 (stereo not drawn)	14
Cc1cccc(C)c1NC(=O)N1CCC(c2nc3ccccc3o2)CC1	-1.11

Structure (SMILES)	hERG current change (%, negative = inhibition) at 1uM [%]
CCOC(=O)c1c(C)c(C(=O)N2CCN(c3cccc(Cl)c3)CC2)c(C)n1C	0.397
CCOc1ccc(S(=O)(=O)N(CC(=O)NCc2ccncc2)c2ccc(C)cc2)cc1	-14.6
O=C(Cn1c(=O)oc2ccccc21)Nc1nnc(N2CCCCCC2)s1	1.9
CN1CN(C)c2cccc3cccc1c23	12.8
CCN(C1CCCCC1)S(=O)(=O)c1ccc(OC)c(C)c1	13.2
CCC1CCCCN1C(=O)N[C@@H](CCSC)C(=O)OC (stereo partly drawn)	2.58
CC(/C=N\Nc1nnc2c(n1)[nH]c1c(C)cccc12)=C\c1ccco1	10
CC(C)N(Cc1cnn(C)c1)Cc1nc(-c2ccc(Cl)cc2)no1	4.78
COc1ccc(CN(C)CC(=O)NC(=O)NC2CCCCC2)cc1	3.48
O=C(COc1cc2oc(=O)c3c(c2cc1Cl)CCCC3)N1C[C@H]2C[C@@H](C1)c1cccc(=O)n1C2	3.08
c1ccc(CSc2nncn2-c2ccccn2)cc1	7.05
Cc1nc2ccccn2c1C(=O)NCC(C)C	2.59
NNC(=S)NC1CCCCC1	14.6
O=C(O)CNC(=S)N(Cc1ccccc1)Cc1cccs1	8.41
CN(CC(=O)Nc1ccccc1N1CCOCC1)CC(=O)Nc1ccc(F)c(F)c1F	9.95
O=C(CCN1C(=O)/C(=C\c2cccs2)SC1=S)Nc1nccs1	11.6
COc1ccc(CCn2c([S-])nc3ccccc3c2=O)cc1.[Na+]	11.5
NNc1nnc(-c2ccccc2)c(-c2ccccc2)n1	0.176
CCc1ccc2nc(NC(=O)CCCc3cccs3)sc2c1	19.4
COc1cc(C(=O)N2CCC(n3c(C)nc4cc(F)ccc43)CC2)cc(OC)c1OC	1.29
CCOC(=O)c1ccoc1CSCc1ccc(C(=O)OC)o1	11.1
Cl.O=C(CCN1CCCCC1)c1ccc2c(c1)OCCO2	8.98
Cc1cccnc1NC(=O)CCCN1C(=O)c2ccccc2C1=O	8.7

Structure (SMILES)	hERG current change (%, negative = inhibition) at 1uM [%]
CC(C)OC(=O)NS(=O)(=O)c1cccc([N+](=O)[O-])c1	12.3
COc1ccc(CNc2nc(SCc3cc(=O)n4cc(Cl)ccc4n3)nc3ccccc23)cc1	-4.12
Brc1ccc(-c2nnc(-c3ccccc3)c(N3CCSCC3)n2)cc1	14.6
CC(C)(C)c1ccc(OCCC(=O)Nc2cccc(S(=O)(=O)N3CCCCC3)c2)cc1	15.3
CSc1ccc(S(=O)(=O)N2CCC(C(=O)Nc3ccc(C(N)=O)cc3)CC2)cc1	15.4
COc1ccc(-n2nnnc2-c2cn(C)nc2C(F)(F)F)cc1	7.4
O=C(NCc1nc2ccccc2[nH]1)C1=C[C@H](c2coc3ccccc3c2=O)C[C@H](OCCCCO)O1	-9.51
CN1CCC(=C(c2ccc(Cl)cc2)c2ccccn2)CC1.O=C([O-])/C=C\C(=O)[O-]	-0.919
Cn1c(=O)c(Oc2cc(Cl)cc(Cl)c2)nc2ccccc21	2.74
Cc1ccc(Nc2cc(C)nc3nc(C)nn23)c(C)c1	12.3
CC(C)[C@H](NC(=O)c1ccccc1)C(=O)Nc1cccc(S(=O)(=O)N2CCOCC2)c1	7.63
CCOc1ccccc1N(CC(=O)NCCSc1ccccn1)S(=O)(=O)c1ccccc1	9.37
CCOC(=O)C1CCCN(c2c(NCCc3ccc(Cl)cc3)c(=O)c2=O)C1 (stereo not drawn)	7.74
Cc1ccc(C2=NN(C3=NN=C(N)Cc4ncnn43)C(O)(C(F)(F)F)C2)cc1 (stereo not drawn)	16.6
CCOC(=O)C(=Nc1ccccc1)NO	13
Cc1ccccc1CS(=O)(=O)c1nnc([C@H](Cc2ccccc2)NC(=O)OC(C)(C)C)o1	3.92
CNC(=O)c1ccccc1S(=O)(=O)c1ccccc1C#N	9.29
COc1ccc(/C=C/C(=O)NC2CCCCCC2)cc1S(=O)(=O)N1CCOCC1	11.3
Cc1nn(C)c(C(=O)Nc2ccc(S(=O)(=O)NC34CC5CC(CC(C5)C3)C4)cc2)c1Br	12.2
COc1ccc(NC(=O)CCC(=O)N/N=C/c2ccc([N+](=O)[O-])s2)cc1	-2.67
Cc1cccc(N/C(N)=N/c2nc(C(F)(F)F)cc(C(F)(F)F)n2)c1	16.1
CCN(CC)S(=O)(=O)c1ccc(C(=O)NC2CN3CCC2CC3)cc1 (stereo not drawn)	17.1
COC(=O)C1C2C=CC3(CN(C(C)C)C(=O)C13)O2 (stereo not drawn)	16.8

Structure (SMILES)	hERG current change (%, negative = inhibition) at 1uM [%]
CN(CC(=O)Nc1cccc(F)c1)CC(=O)Nc1ccccc1Oc1ccccc1.O=C(O)C(=O)O	7.88
Cn1c(=N)c(S(=O)(=O)c2ccccc2)cc2c(=O)n3ccccc3nc21	4.52
CCc1ccccc1Nc1nc(N)nc(CSCC(=O)Nc2ccc(C)c(C)c2)n1	-0.266
O=S(=O)(c1ccc2nc(-c3ccccc3)[nH]c2c1)N1CCN(c2cccc(Cl)c2)CC1	8.43
O=C(CCNS(=O)(=O)c1c(Cl)cccc1Cl)OCC(=O)c1ccccc1	10.4
Cc1ccc(Nc2cc(C)nc(-c3ccccc3)n2)cc1	10.4
O=c1c2ccccc2nc2ccc(NCc3ccco3)nn12	-27.4
Clc1ccccc1/C=C/c1nc(-c2cccnc2)no1	12.5
COc1ccc(C(CNC(=O)c2ccccc2SC)N(C)C)cc1 (stereo not drawn)	6.99
COc1ccc(OC2OC3COC(C)(C)OC3C(O)C2NC(C)=O)cc1 (stereo not drawn)	9.1
COc1cc(OC)nc(NC(=O)COC(=O)C2CCCCC2)n1	8.48
O=C(CCS(=O)(=O)c1ccc(Br)cc1)N1CCN(c2ccccc2Cl)CC1	2.11
CCc1cc(C(=O)N2CCCC(CCC(=O)NCc3cccc(OC)c3)C2)no1 (stereo not drawn)	9.45
CCCn1c(=N)c(C#N)cc2c(=O)n3cccc(C)c3nc21	-20.2
CCOC(=O)CCc1c(C)c2ccc(O)cc2oc1=O	10.6
COc1ccc(CC(=O)c2ccccc2C(=O)O)cc1	12.1
CN(CC(=O)Nc1cccc(F)c1)C(=O)c1ccc2c(c1)OCCO2	-0.385
COc1ccc(N2C(=O)Cc3c2nc(N)c(C#N)c3N)cc1	15.7
CCS(=O)(=O)c1ccc2oc(SCC(=O)Nc3ccc(OC)cc3OC)nc2c1	29.2
CC(=C/c1ccccc1)/C=C1/SC(N2CCOCC2)=NC1=O	10.1
Cc1n[nH]c(=S)n1/N=C/c1ccc(OCc2ccc(Cl)cc2Cl)cc1	15.3
